According to the supplement of paper PMC6609913:
Where a name gives a salt, the structure may show the parent alone. ± gives the standard deviation of the averaged measurements. Over roughly 1,300 compounds, “normalised cell viability” has its median near 1; the lowest 2% begin near 0.14. The list shows a part of the results.

System: V-C8 (BRCA2-deficient hamster cells)
Test: normalised cell viability (fraction of plate median); higher = more viable cells (less toxic)
Conditions: 5 µM
Method in brief: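 In two screens, library drugs at 5 μM were given for 3 days (screen 1) or 6 days (screen 2) to hamster V-C8 cells without BRCA2 and V-C8 cells with BRCA2 restored, seeded 24 h earlier in 96-well plates. A resazurin assay gave the cell viability readout, expressed as modified robust per cent of sample against the plate median, with triplicate wells averaged.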

For `Cc1cnc(C(=O)NCCc2ccc(S(=O)(=O)NC(=O)NC3CCCCC3)cc2)cn1` [Glipizide], the normalised cell viability (treatment time: 3 days) was 1.093 ± 0.0089 and the normalised cell viability (treatment time: 6 days) was 1.13 ± 0.034.

For `CN1CCN(c2c(F)cc3c(=O)c(C(=O)O)cn4c3c2SCC4)CC1` [Rufloxacin], the normalised cell viability (treatment time: 3 days) was 0.987 ± 0.017 and the normalised cell viability (treatment time: 6 days) was 0.955 ± 0.077.

In the case of `COC(=O)C1=C(C)NC(C)=C(C(=O)OCCN(C)Cc2ccccc2)C1c1cccc([N+](=O)[O-])c1` (stereo not given) [Nicardipine hydrochloride], the normalised cell viability (treatment time: 3 days) is reported as 0.285 ± 0.024 and the normalised cell viability (treatment time: 6 days) is reported as 0.366 ± 0.034.

`COC(=O)C1=C(C)NC(C)=C(C(=O)OCC(C)C)C1c1ccccc1[N+](=O)[O-]` (stereo not given) [Nisoldipine] was tested, and the normalised cell viability (treatment time: 3 days) was 0.889 ± 0.059 and the normalised cell viability (treatment time: 6 days) was 0.894 ± 0.019.

Compound `CN(C)CCOC(c1ccc(Cl)cc1)c1ccccn1` (stereo not given) [Carbinoxamine maleate salt] has a normalised cell viability (treatment time: 3 days) of 0.976 ± 0.014 and a normalised cell viability (treatment time: 6 days) of 0.997 ± 0.013.

`O=C1CCc2ccc(OCCCCN3CCN(c4cccc(Cl)c4Cl)CC3)cc2N1` [Aripiprazole] showed a normalised cell viability (treatment time: 3 days) of 0.405 ± 0.12 and a normalised cell viability (treatment time: 6 days) of 0.242 ± 0.065.

`NC(=O)NC1NC(=O)NC1=O` (stereo not given) [Allantoin] gave a normalised cell viability (treatment time: 3 days) of 1.04 ± 0.015 and a normalised cell viability (treatment time: 6 days) of 1.02 ± 0.023.

With `O=C1C(O)=C([C@H]2CC[C@H](c3ccc(Cl)cc3)CC2)C(=O)c2ccccc21` [Atovaquone] the normalised cell viability (treatment time: 3 days) was 0.896 ± 0.025 and the normalised cell viability (treatment time: 6 days) was 0.9167 ± 0.0055.

For `CC(C)NCC(O)c1ccc(O)c(O)c1` (single isomer, unassigned; (-)) [(-)-Isoproterenol hydrochloride], the normalised cell viability (treatment time: 3 days) was 1 ± 0.035 and the normalised cell viability (treatment time: 6 days) was 0.952 ± 0.015.

`Cc1ccccc1C(OCCN(C)C)c1ccccc1` (stereo not given) [Orphenadrine hydrochloride] was tested, and the normalised cell viability (treatment time: 3 days) was 1.05 ± 0.14 and the normalised cell viability (treatment time: 6 days) was 0.964 ± 0.14.

Compound `NS(=O)(=O)c1cc2c(cc1Cl)NC(CC1CCCC1)NS2(=O)=O` (stereo not given) [Cyclopenthiazide] has a normalised cell viability (treatment time: 3 days) of 1.03 ± 0.024 and a normalised cell viability (treatment time: 6 days) of 1.06 ± 0.052.

Work on `CC(C)(C)NCC(O)c1cc(O)cc(O)c1` (stereo not given) [Terbutaline hemisulfate] yielded a normalised cell viability (treatment time: 3 days) of 0.156 ± 0.0028 and a normalised cell viability (treatment time: 6 days) of 0.146 ± 0.026.

`CC[N+](CC)(CC)CCOc1cccc(OCC[N+](CC)(CC)CC)c1OCC[N+](CC)(CC)CC` [Gallamine triethiodide] gave a normalised cell viability (treatment time: 3 days) of 0.986 ± 0.044 and a normalised cell viability (treatment time: 6 days) of 1.03 ± 0.033.

With `CCOC(=O)[N-]c1c[n+](N2CCOCC2)no1` [Molsidomine] the normalised cell viability (treatment time: 3 days) was 1.02 ± 0.097 and the normalised cell viability (treatment time: 6 days) was 1.07 ± 0.018.

With `C#C[C@]1(O)CC[C@H]2[C@@H]3CCC4=C(CCC(=O)C4)[C@H]3CC[C@@]21C` [Norethynodrel] the normalised cell viability (treatment time: 3 days) was 0.994 ± 0.039 and the normalised cell viability (treatment time: 6 days) was 1.05 ± 0.15.

`CCc1oc2ccccc2c1C(=O)c1cc(Br)c(O)c(Br)c1` [Benzbromarone] was tested, and the normalised cell viability (treatment time: 3 days) was 1.03 ± 0.026 and the normalised cell viability (treatment time: 6 days) was 1.051 ± 0.0087.

Compound `CC/C(=C(\c1ccccc1)c1ccc(OCCN(C)C)cc1)c1ccccc1` [Tamoxifen citrate] has a normalised cell viability (treatment time: 3 days) of 0.837 ± 0.019 and a normalised cell viability (treatment time: 6 days) of 0.767 ± 0.035.

`CN[C@@H]1[C@H](O[C@H]2[C@H](O[C@H]3[C@H](O)[C@@H](O)[C@H](NC(=N)N)[C@@H](O)[C@@H]3NC(=N)N)O[C@@H](C)[C@]2(O)CO)O[C@@H](CO)[C@H](O)[C@H]1O` [Dihydrostreptomycin sulfate] showed a normalised cell viability (treatment time: 3 days) of 0.9449 ± 0.0023 and a normalised cell viability (treatment time: 6 days) of 0.959 ± 0.056.

With `NCc1ccc(S(N)(=O)=O)cc1` [Mafenide hydrochloride] the normalised cell viability (treatment time: 3 days) was 1.03 ± 0.04 and the normalised cell viability (treatment time: 6 days) was 0.989 ± 0.11.

For `CCN1CCC[C@H]1CNC(=O)c1c(O)c(Cl)cc(Cl)c1OC` [Raclopride], the normalised cell viability (treatment time: 3 days) was 0.945 ± 0.029 and the normalised cell viability (treatment time: 6 days) was 0.975 ± 0.16.

With `CCCCC[C@H](O)/C=C/[C@H]1[C@H](O)CC(=O)[C@@H]1CCCCCCC(=O)O` [Alprostadil] the normalised cell viability (treatment time: 3 days) was 0.979 ± 0.024 and the normalised cell viability (treatment time: 6 days) was 0.952 ± 0.078.

`CC(C(=O)O)c1ccc(C(=O)c2cccs2)cc1` (stereo not given) [Suprofen] gave a normalised cell viability (treatment time: 3 days) of 1 ± 0.022 and a normalised cell viability (treatment time: 6 days) of 1.06 ± 0.026.

In the case of `COc1cc2ncnc(Nc3ccc(F)c(Cl)c3)c2cc1OCCCN1CCOCC1` [Gefitinib], the normalised cell viability (treatment time: 3 days) is reported as 0.645 ± 0.035 and the normalised cell viability (treatment time: 6 days) is reported as 0.685 ± 0.01.

Compound `CCOc1ccc(NC(C)=O)cc1` [Phenacetin] has a normalised cell viability (treatment time: 3 days) of 1.02 ± 0.017 and a normalised cell viability (treatment time: 6 days) of 1 ± 0.098.

In the case of `CN1CCC[C@@H]1CCO[C@](C)(c1ccccc1)c1ccc(Cl)cc1` [Clemastine fumarate], the normalised cell viability (treatment time: 3 days) is reported as 0.865 ± 0.022 and the normalised cell viability (treatment time: 6 days) is reported as 0.903 ± 0.042.

`Nc1nc2[nH]cc(CCc3ccc(C(=O)N[C@@H](CCC(=O)O)C(=O)O)cc3)c2c(=O)[nH]1` [Pemetrexed disodium] gave a normalised cell viability (treatment time: 3 days) of 0.427 ± 0.012 and a normalised cell viability (treatment time: 6 days) of 0.525 ± 0.048.

Work on `COc1ccc(C(=O)c2ccccc2O)c(O)c1` [Dioxybenzone] yielded a normalised cell viability (treatment time: 3 days) of 1.07 ± 0.078 and a normalised cell viability (treatment time: 6 days) of 1.06 ± 0.047.

`CC(C)(C)NC[C@H](O)COc1ccccc1C1CCCC1` [Penbutolol sulfate] was tested, and the normalised cell viability (treatment time: 3 days) was 0.717 ± 0.077 and the normalised cell viability (treatment time: 6 days) was 0.833 ± 0.068.

For `COc1ccc(CN2CCN(C(c3ccc(F)cc3)c3ccc(F)cc3)CC2)c(OC)c1OC` [Lomerizine hydrochloride], the normalised cell viability (treatment time: 3 days) was 0.881 ± 0.042 and the normalised cell viability (treatment time: 6 days) was 0.799 ± 0.035.

In the case of `Cc1cnc(C(=O)O)c[n+]1[O-]` [Acipimox], the normalised cell viability (treatment time: 3 days) is reported as 1.11 ± 0.059 and the normalised cell viability (treatment time: 6 days) is reported as 1.05 ± 0.022.

In the case of `O=C(O)[C@H]1/C(=C/CO)O[C@@H]2CC(=O)N21` [Potassium clavulanate], the normalised cell viability (treatment time: 3 days) is reported as 1 ± 0.03 and the normalised cell viability (treatment time: 6 days) is reported as 0.984 ± 0.039.

Compound `O=C(OCCOCCO)c1ccccc1Nc1cccc(C(F)(F)F)c1` [Etofenamate] has a normalised cell viability (treatment time: 3 days) of 1.06 ± 0.028 and a normalised cell viability (treatment time: 6 days) of 1.03 ± 0.042.

`OCCN1C[C@H](O)[C@@H](O)[C@H](O)[C@H]1CO` [Miglitol] showed a normalised cell viability (treatment time: 3 days) of 1.07 ± 0.04 and a normalised cell viability (treatment time: 6 days) of 1 ± 0.11.

Compound `Cn1cnc([N+](=O)[O-])c1Sc1ncnc2[nH]cnc12` [Azathioprine] has a normalised cell viability (treatment time: 3 days) of 0.822 ± 0.076 and a normalised cell viability (treatment time: 6 days) of 0.733 ± 0.051.

`CC(C)C(=O)Nc1ccc([N+](=O)[O-])c(C(F)(F)F)c1` [Flutamide] was tested, and the normalised cell viability (treatment time: 3 days) was 1 ± 0.078 and the normalised cell viability (treatment time: 6 days) was 0.983 ± 0.031.
